The results in this text go back to PubChem BioAssay AID1346428 (National Center for Advancing Translational Sciences (NCATS), 2018).

Values joined by “and” are separate entries in the source; they are usually repeats but may differ in a detail not shown here. Equal values may be shown once. About 1,200 (2.5%) of roughly 48,000 compounds were called active. About 2% were inconclusive and are not listed.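 The calls were made as follows: active = activation of at least 60% and not above a set upper limit (about 1 call in 100 departs from these limits); inconclusive = activation of 40% to 60%, or above that upper limit; inactive = activation under 40%.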 The list shows a part of the results.

UniProt O75388, sequence (O75388 whole entry, looked up, the tested form may be a part): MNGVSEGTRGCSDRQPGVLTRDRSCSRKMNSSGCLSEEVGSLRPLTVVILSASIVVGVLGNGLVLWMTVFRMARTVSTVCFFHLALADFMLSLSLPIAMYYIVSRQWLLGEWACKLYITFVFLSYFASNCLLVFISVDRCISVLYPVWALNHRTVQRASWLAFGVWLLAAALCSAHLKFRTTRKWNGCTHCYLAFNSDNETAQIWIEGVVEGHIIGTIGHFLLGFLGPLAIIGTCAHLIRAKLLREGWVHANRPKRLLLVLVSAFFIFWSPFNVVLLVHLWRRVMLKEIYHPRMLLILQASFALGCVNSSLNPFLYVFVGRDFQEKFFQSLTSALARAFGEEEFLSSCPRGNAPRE

This experiment deals with Probable G-protein coupled receptor 32 (Homo sapiens) (UniProt O75388). Briefly: qHTS for Agonists of Human Resolvin D1 Receptor DRV1. Also: 0% is about no effect. The settings on record: CHO-K1 GPR32 beta-arrestin PathHunter luminescence, 90 min; at 76.9 µM; hits give high values; zero percent set by DMSO-only wells. The essentials:
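Agonism was scored by beta-Gal fragment complementation (chemiluminescent read, 1 h detection at ambient temperature) reporting beta-arrestin binding to GPR32 in engineered CHO-K1 cells. Compound treatment lasted 90 min at 37 C, normalized to a DMSO basal control.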
Regarding `COc1cc(N)c(Cl)cc1C(=O)NC1CCN(Cc2ccccc2)CC1`, the activation was inactive: -13.5%. As to `COc1ccccc1N1CCN(c2ccc(-c3nc(-c4ccccc4C)no3)cc2[N+](=O)[O-])CC1`, the activation is inactive: 0.577%. Turning to `COc1ccccc1Cc1nc2ccccc2nc1SCC(=O)N1CCc2ccccc21`, the activation is inactive: -6.54%. Under `Cc1cccc(-c2nc(CSCC(=O)N3CCN(c4ccccc4)CC3)c(C)o2)c1` stands inactive: -1.42%; under `CCC(C)NC(=O)C1CCN(C(=O)c2ccc(-n3ccc4ccccc43)s2)CC1` (stereo not drawn), inactive: 10.9%; under `COc1ccccc1CCNC(=O)Cc1c(C)c2c(cc(C)c3c(C)c(C)oc32)oc1=O`, inactive: -7.99%.

Turning to `FC(F)(F)c1cccc(-c2nnn3c2nc(NC2CCCCC2)c2ccccc23)c1`, the activation is inactive: 23.8%. Under `Cc1cccc(N2CCN(C(=O)Cn3cnc4sc(C)c(S(=O)(=O)N5CCN(c6ncccn6)CC5)c4c3=O)CC2C)c1` (stereo not drawn) stands inactive: -6.44%.

As for `CCOC(=O)c1ccc(NC(=O)CSc2nccn2-c2ccc(OCC)cc2)cc1`, the activation was inactive: 8.32%. Under `COc1ccc(NC(=O)C(C)n2nnc3sc(-c4ccccc4)cc3c2=O)cc1Cl` (stereo not drawn) stands inactive: 16.8%; under `COc1cc([N+](=O)[O-])ccc1NC(=O)N1CCN(c2cc(-c3noc(C)n3)ccc2C)CC1`, inactive: -6.34%. Turning to `CCOc1ccccc1CNC(=O)C1CCN(S(=O)(=O)c2c(C)noc2/C=C/c2ccc(C)cc2)CC1`, the activation is inactive: -21.3%. The value for `COc1cccc(NC(=O)C(=O)NCCc2csc(-c3ccc(C(F)(F)F)cc3)n2)c1` was inactive: -19%. Under `CCOc1ccc(CCNC(=O)c2cc(=O)[nH]c3ccc(S(=O)(=O)N4CCCCC4)cc23)cc1OCC` stands inactive: -10.9%. Turning to `CCSc1nc(-c2ccc(Cl)cc2)nc2c1Cc1c(CO)cnc(C)c1O2`, the activation was inactive: 33%. Under `COc1ccccc1CNC(=O)CCC1N=C2c3ccccc3N=C(SCc3ccccc3Cl)N2C1=O` (stereo not drawn) stands inactive: -23.2%. Under `CCOC(=O)c1sc2ccccc2c1S(=O)(=O)NCc1ccc(F)cc1` stands inactive: -31%; under `CCOC(=O)c1ccc(NC(=O)CCn2cnnn2)cc1`, inactive: 18.2%. Under `COC(=O)c1cnc(N2CCN(c3ccccc3OC)CC2)c2ccccc12` stands inactive: 2.72%; under `COc1ccc(-c2cc(C(F)(F)F)n3nc(C(=O)Nc4cccc(C(F)(F)F)c4)c(Br)c3n2)cc1`, inactive: -2.28%. As for `CC1=C(c2ccc(Cl)cc2)S(=O)(=O)N=C1N1CCN(c2cccc(C(F)(F)F)c2)CC1`, the activation was inactive: -10.5%. Under `Nc1nc(N)nc(-c2cc(Cl)ccc2Cl)n1` stands inactive: -7.53%; under `O=C(NCc1ccccc1Cl)c1ccc(CSCc2cccc(F)c2)o1`, inactive: -21.6%. The value for `Cc1ccc(-n2nnnc2CNC(=O)c2ccccc2F)cc1C` was inactive: -4.71%; that for `CCN1CCCC1CNC(=O)c1cc(S(=O)(=O)CC)c(N)cc1OC` (stereo not drawn) was inactive: 5.37% and inactive: -0.157%; that for `Cc1ccc(NC(c2nnc(-c3ccccc3)o2)c2ccccc2F)c([N+](=O)[O-])c1` (stereo not drawn) was inactive: -17.1%. On to `O=C(Nc1c(C(=O)Nc2cccc(C(F)(F)F)c2)oc2ccccc12)c1cc(=O)c2ccccc2o1`, for which the activation is inactive: -9.55%. Under `Cc1cccn2c(=O)cc(COc3ccc(NC(=O)c4cccc(F)c4)cc3)nc12` stands inactive: -10.7%. The value for `CCC1CCCCN1C(=O)Cn1c(=O)n(CCCCCC(=O)NCc2ccc(F)cc2)c(=O)c2sccc21` (stereo not drawn) was inactive: -9.21%; that for `O=C(O)CCn1cnc2onc(-c3ccccc3Cl)c2c1=O` was inactive: 0.576%. For the molecule `CCn1c(=O)c2cc(C(=O)NCCCN(C)Cc3ccccc3)sc2c2ccccc21`, the activation was inactive: 38.4%. Under `CCc1cccc(NC(=O)Cn2cc(C(=O)c3ccncc3)c(=O)c3cc(C)c(C)cc32)c1` stands inactive: -17.8%. Consider `O=C(NCc1ccc(Cl)cc1)c1ccc2c(c1)NC(=O)C(CS(=O)(=O)Cc1ccccc1Cl)N2` (stereo not drawn), for which the activation is inactive: -18.9%. Under `CCOc1ccc(NC(=O)Cn2c(=O)n(CC3CCCO3)c(=O)c3ccccc32)cc1` (stereo not drawn) stands inactive: -3.31%. Under `CCc1ccc(-n2nc(C)c3c(C)cc(=O)n(CC(=O)NCc4ccc(C)cc4)c32)cc1` stands inactive: 14.7%; under `CCc1ccc(NC(=O)CSc2nc(C)cc(COC)c2C#N)cc1`, inactive: 26%. With `CCCCCCc1cc2cc(-c3nnc(-c4ccc(C)cc4)o3)c(=O)oc2cc1O`, the activation was inactive: 42.7%. Take `CC(C)CCNc1nc2c(S(=O)(=O)c3ccc(Br)cc3)nnn2c2ccsc12`: the activation is inactive: -13.4%. The value for `O=C(NCc1cccnc1)C(=O)NCC(c1cccnc1)N1CCN(c2ccccc2)CC1` (stereo not drawn) was inactive: -4.89%; that for `CCc1cc2c(cc3c(=O)n(CC(=O)N4CCN(c5cc(Cl)ccc5C)CC4)nc(CC)n32)s1` was inactive: -14.3%. The value for `O=C(NCc1ccccc1)C1CCN(C(=O)c2cnn(-c3ccccc3)c2-n2cccc2)CC1` was inactive: -18.2%. Under `C=Cc1ccc(Cn2c(=O)n(-c3ccc(C)cc3)c(=O)c3c2c2cc(OC)ccc2n3C)cc1` stands inactive: -8.48%; under `CCOc1ccc2nc(N3CCCC(C(=O)NCc4ccccc4Cl)C3)sc2c1` (stereo not drawn), inactive: -15.8%. As to `COc1ccc2cc(C(=O)NCc3ccc4c(c3)CCN4C(=O)c3ccc(C)cc3)[nH]c2c1`, the activation was inactive: -17.3%. Regarding `CC1=C(C(=O)Nc2ccc(C)cc2C)C(c2cccn2C)n2ncnc2N1` (stereo not drawn), the activation is inactive: 5.89%. The value for `CC(=O)Nc1nnc(SCc2cc(=O)c3cccc(C)c3[nH]2)s1` was inactive: 5.52%; that for `Cc1ccc(C)c(Cn2c(C)c(CNCc3ccc(F)cc3)c(C(=O)O)c2C)c1` was inactive: -3.14%. Turning to `COc1ccc(CCNC(=O)CCCCCn2c(=O)[nH]c3cc(OC)c(OC)cc3c2=O)cc1OC`, the activation was inactive: -0.0616%.

Turning to `CCc1ccc(C2=CC(c3cccc(Br)c3)n3nnnc3N2)cc1` (stereo not drawn), the activation was inactive: -40.5%. With `Cc1ccc2c(c1)c(=O)c(C(=O)c1ccncc1)cn2CC(=O)Nc1ccccc1Cl`, the activation is inactive: -4.42%. For `NC(N)=NCCN1CCCCCCC1`, the activation was inactive: -13.5%. The value for `Cc1ccc(C)c(N2CCN(c3nc4ccccc4c4nc(-c5cccnc5)nn34)CC2)c1` was inactive: 29.2%; that for `CCOC(=O)c1cccc(NC(c2nnc(-c3ccccc3)o2)c2ccccc2F)c1` (stereo not drawn) was inactive: -17.3%; that for `CC(C)C(=O)Nc1cccc(NC2=NS(=O)(=O)c3ccccc32)c1` was inactive: 11%. Turning to `Cc1ccc(CNC(=O)C2CCCN(c3nnc(-n4c(C)ccc4C)s3)C2)cc1` (stereo not drawn), the activation is inactive: -33.4%. For the molecule `CCc1ccc(NC(=O)Cn2c(=O)oc3cc(S(=O)(=O)NCc4ccccc4)ccc32)cc1`, the activation was active: 73.3%. The value for `COc1ccc(NC(=O)CSc2nc(O)c(C/C=C/c3ccccc3)c(=O)[nH]2)cc1` was inactive: -4.57%; that for `CSc1ccc(CCNC(=O)CCc2c(C)nc3cc(-c4ccccc4)nn3c2C)cc1` was inactive: -3.69%. Take `CCOc1ccc(/C=C/c2nc(C#N)c(Nc3ccc(OC)cc3)o2)cc1`: the activation was inactive: -15.1%.

`CCCOc1ccc(CN(C(=O)c2nc(SC(C)C)ncc2Cl)C2CCS(=O)(=O)C2)cc1` (stereo not drawn): the activation is inactive: -16.3%. Under `N#Cc1ccccc1Cn1c(=O)n(Cc2ccc(C(=O)NC3CCN(Cc4ccccc4)CC3)cc2)c(=O)c2ccccc21` stands inactive: -6.17%; under `O=C(Nc1c(C(=O)Nc2cccc(F)c2)oc2ccccc12)c1cc2ccccc2o1`, inactive: 1.49%. The value for `Fc1ccc(-c2ccc(CNCCSc3nnnn3-c3ccccc3)o2)cc1Cl` was inactive: 22.8%; that for `COc1cc2[nH]c(=O)n(CCCCCC(=O)NCCc3ccccc3)c(=O)c2cc1OC` was inactive: 9.27%.

`CCNC(=O)c1ccc2nc(Cc3ccccc3)oc2c1`: the activation is inactive: -3.64%.

For `CCOC(=O)c1c(NC(=O)COc2cccc(C(F)(F)F)c2)sc2c1CCCCC2`, the activation is inactive: -0.293%. The value for `CC(C)COc1ccc(C(=O)N2CCN(CCc3ccccn3)CC2)cc1` was inactive: 9.75%. The value for `O=C(CSc1ncc(CO)n1Cc1ccccc1)Nc1ccc(C(F)(F)F)cc1` was active: 118%; that for `COc1cccc(C2c3c(-c4ccccc4O)n[nH]c3C(=O)N2CCc2ccc(OC)c(OC)c2)c1` (stereo not drawn) was inactive: -6.04%; that for `O=C(Nc1nnc(S(=O)(=O)N2CCc3ccccc32)s1)c1ccccc1` was inactive: 43.6%. The value for `CCOc1nc(-c2ccc(C)cc2)ccc1-c1noc(-c2ccccc2F)n1` was inactive: -2.91%.

With `Cc1ccc(-c2nc3ccc(Cl)cn3c2Nc2ccc3c(c2)OCCO3)s1`, the activation was inactive: 6.49%. Under `COc1ccc(CNC(=O)CN2C(=O)CCCc3ccccc32)cc1` stands inactive: -4.44%; under `CCN(CC)S(=O)(=O)c1ccc2oc(C(=O)Nc3ccc(Br)cc3F)c(C)c2c1`, inactive: -2.7%. The value for `Cc1ccc(Sc2c(C(=O)NCc3ccccc3C)[nH]c3ccccc23)cc1` was inactive: -7.44%; that for `COc1cc(NC(=O)c2cnc3c(-c4ccc(F)cc4)c(C)nn3c2C)cc(OC)c1` was inactive: -24.2%; that for `CCc1ccc(-c2nc(-c3cc4ccccc4oc3=O)sc2C)cc1` was inactive: -8.47%. For `CCn1c(C(=O)Nc2cc(Cl)ccc2C)cc2sc(Cl)cc21`, the activation is inactive: -14.6%. Consider `CCOc1ccc(CCNC(=O)Cn2ncn3c(cc4ccccc43)c2=O)cc1OCC`, for which the activation is inactive: -4.58%. With `COc1ccc(NC(=O)CC(C)n2nc(C)cc2C)cc1Cl` (stereo not drawn), the activation is inactive: -12.5%.

As for `COc1ccc(CCNC(=O)CCc2c(C)c3cc4c(C)c(C)oc4cc3oc2=O)cc1`, the activation was inactive: -10.8%.

`Cc1ccc(-c2nn3c(-c4ccccc4)nnc3c3ccccc23)cc1`: the activation was inactive: -20.7%. `CC(C)Sc1ncc(Cl)c(C(=O)N(Cc2ccc(F)cc2)C2CCS(=O)(=O)C2)n1` (stereo not drawn): the activation is inactive: -9.5%.
